Some of the results follow.

The experiment has as its system PfAP2-HC AP2 domain (GST-tagged). In words: gcPBM binding intensity (ln(normalized median fluorescence intensity)); higher = stronger DNA binding. Put shortly: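 Binding intensity is defined as the maximum Masliner-normalised natural-log median intensity across replicate spots for either probe orientation. It was measured on an Agilent 4 × 180k array of primer-extended double-stranded 36-bp intergenic genomic probes and negative controls, to which GST-tagged P. falciparum DNA-binding domains made in E. coli were applied for 1 h in 1× PBS with 1% milk, 0.2 mg/ml BSA, 0.5% salmon testes DNA and 0.03% Triton X-100. Detection was by Alexa488 anti-GST antibody and scanning at 488 nm.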
Regarding “AAATAAGCATATACAAACATGCATACATATAAATAA [CACACA_negctrl_site246]”, the “gcPBM binding intensity (ln)” value was 9.79.
For the sequence “AAAAAAAAAAAATCATGTACTTATTTTTCATTGTTG [XGTACX_site1542]”, the “gcPBM binding intensity (ln)” value came to 9.6.
As for “TATATGCACTTAATATGTACACAAAAAAAAAAAAAA [XGTACX_site6199]”, the “gcPBM binding intensity (ln)” value was 9.48.
On to “TTTATATATTATACATGTACATATTTATTTATATAA [XGTACX_site3474]”, for which the “gcPBM binding intensity (ln)” value amounted to 9.75.
Turning to “CTTATATTAAAAACTTGTACACATGTTAAGAATTTT [XGTACX_site5857]”, the “gcPBM binding intensity (ln)” value stood at 9.51.
With “AGTATAAAAATAAGCACACACACAAATATATATTTA [CACACA_site923]”, the “gcPBM binding intensity (ln)” value worked out at 10.5.
Regarding “ATAATATAAATATTAACACACATCCTTTTATGTATA [CACACA_site6685]”, the “gcPBM binding intensity (ln)” value was 9.88.
With “TTTTCTTTTACAAAGGGTACATAATTTAAATTCATA [XGTACX_site3876]”, the “gcPBM binding intensity (ln)” value came out at 9.36.
Consider “TTTCTTCTGCATTATGCACACTATAATTCGTTAAAA [CACACA_site5568]”, for which the “gcPBM binding intensity (ln)” value was 9.87.
In the case of “TTACAAAACACTTATACACACATATAAATATAAATA [CACACA_site7307]” it was 9.92; in that of “CTCCTCATATAATTTTGTACATAAAAAATTACCATT [XGTACX_site3879]”, 9.56; in that of ATATATTTTATATGTGTGCACTATATATATATATAT, 10.
In the case of “TATTTTATAATTTACCGTACATTAATTGTATTATTA [XGTACX_site5722]” it was 9.7; in that of “ATATATTTTAAAGAAAGTACCCACCGTTTGAAGTCA [XGTACX_site2273]”, 9.73.
For the sequence “TGTTATATATATTGACTTAATAAATAAATAAATATA [GTGCAC_negctrl_site590]”, the “gcPBM binding intensity (ln)” value stood at 9.42.
Regarding “TCTTATTTTATAAATATAAATATATATATATATATA [GTGCAC_negctrl_site479]”, the “gcPBM binding intensity (ln)” value stood at 9.44.
Regarding “CTATAAATAACAGAAAGTACATATACATGGATATAT [XGTACX_site3317]”, the “gcPBM binding intensity (ln)” value turned out to be 9.69.
For “TTTCTAAATGTTTATATATATATATATATATAAATA [GTGCAC_negctrl_site397]”, the “gcPBM binding intensity (ln)” value was 9.47.
In the case of “TATTTTGCTCATCCATGTACACATAGATATATTTTA [XGTACX_site8244]” it was 9.75; in that of “ATATTATGTGAAGAACGTACAAATTTTTACACTATA [XGTACX_site1485]”, 9.74; in that of “TTCTTTTCAGAAGGAAAGAATTATAACATATCATAA [XGTACX_negctrl_site548]”, 9.08.
With “AATCCACTTTTTTATGTTATACAATATAAATTAAAT [XGTACX_negctrl_site446]”, the “gcPBM binding intensity (ln)” value worked out at 9.57.
Consider “ATTTAAGAAAAAAGTTGTACTTATTTATTTTTATTT [XGTACX_site5561]”, for which the “gcPBM binding intensity (ln)” value is 9.54.
In the case of “GGCTAAAAGGGGCACACACACAAAAAAAAAAAAAAA [CACACA_site3288]” it was 10.3.

The values above are taken from the supplement of paper PMC11417369.
